According to PubChem BioAssay (NCI):
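1) Cells in 96-well plates. 2) Compound, 48 h, 5 concentrations. 3) Linear interpolation between surrounding doses. 4) Unreached endpoint = highest concentration. At the GI50, growth is halved.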 Certain results were filed several times, with different values. The list is limited to them. The source may hold further records. The values listed for one entry repeat one measurement in other runs, samples, wells, individuals or studies. What stands in brackets tells the records apart. Letters hold for one entry only.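 TGI marks complete inhibition of growth.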

Key:
Test in all cases: DTP human tumour cell line panel, 48 h
SK-MEL-28 melanoma = tested on: SK-MEL-28 melanoma
UACC-62 melanoma = tested on: UACC-62 melanoma
SF-539 CNS = tested on: SF-539 CNS

Q: Which results are given for `CS(=O)(=O)N1CCN(Cc2cc3nc(-c4cccc5[nH]ncc45)nc(N4CCOCC4)c3s2)CC1`?
A: TGI (SK-MEL-28 melanoma): > 100 µM [sample A, 1 test] and 2.08 µM [sample B, mean of 2 tests]; GI50 (UACC-62 melanoma): 365 nM [sample A, mean of 2 tests] and 36.2 nM [sample B, 1 test]; TGI (SF-539 CNS): > 28.1 µM [sample A, mean of 2 tests] and 2.21 µM [sample B, mean of 2 tests]
